Patent US20200199241A1 (Chugai, published 2020)

Experiments:
[1] = biological target: T1, human FcγRIIa(R) (human, UniProt P12318 36-217); assay: SPR, pH 7.4, antibody captured by Protein L
T1 construct: also called FcgRIIaR; hFcgRIIa(R)
T1 chain: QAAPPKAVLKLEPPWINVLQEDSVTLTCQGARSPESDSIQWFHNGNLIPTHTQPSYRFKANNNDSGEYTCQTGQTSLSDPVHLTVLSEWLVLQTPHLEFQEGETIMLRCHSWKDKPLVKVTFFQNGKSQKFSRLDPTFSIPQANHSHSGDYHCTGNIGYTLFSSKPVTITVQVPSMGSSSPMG

[2] = biological target: T2, human FcRn (soluble human FcRn complexed with β2-microglobulin) (human, UniProt P61769 part only, limits assumed); assay: SPR, antibody captured by Protein L, human FcRn as analyte, pH 7.0, 25 C
T2 construct: also called hFcRn

[3] = biological target: T3, mouse FcγRI (mouse, UniProt P26151 25-297); assay: SPR, antibody captured by Protein L, mouse FcγR as analyte, pH 7.4, 25 C
T3 construct: bought; also called mFcgRI; mFcgR 1
T3 sequence (looked up): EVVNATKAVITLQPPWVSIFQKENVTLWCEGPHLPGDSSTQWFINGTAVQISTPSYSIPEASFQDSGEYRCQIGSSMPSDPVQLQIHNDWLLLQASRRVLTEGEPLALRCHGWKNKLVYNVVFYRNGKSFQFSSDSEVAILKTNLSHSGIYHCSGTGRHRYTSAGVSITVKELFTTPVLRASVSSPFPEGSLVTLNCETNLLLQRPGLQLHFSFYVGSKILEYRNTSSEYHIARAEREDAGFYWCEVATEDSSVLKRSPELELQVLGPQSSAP

[4] = biological target: T4, mouse FcγRIIb (mouse, UniProt P08101 30-207, limits assumed); assay: as above
T4 construct: bought; also called mFcgRIIb; mFcgR IIb
T4 sequence (looked up): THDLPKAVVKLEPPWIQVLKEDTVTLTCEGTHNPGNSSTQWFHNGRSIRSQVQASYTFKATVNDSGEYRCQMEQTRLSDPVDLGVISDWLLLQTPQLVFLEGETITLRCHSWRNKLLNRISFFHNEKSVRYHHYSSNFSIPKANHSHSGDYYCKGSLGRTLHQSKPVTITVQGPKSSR

[5] = biological target: T5, mouse FcγRIII (mouse, UniProt P08508 31-215); assay: as above
T5 construct: bought; also called mFcgRIII; mFcgR III
T5 sequence (looked up): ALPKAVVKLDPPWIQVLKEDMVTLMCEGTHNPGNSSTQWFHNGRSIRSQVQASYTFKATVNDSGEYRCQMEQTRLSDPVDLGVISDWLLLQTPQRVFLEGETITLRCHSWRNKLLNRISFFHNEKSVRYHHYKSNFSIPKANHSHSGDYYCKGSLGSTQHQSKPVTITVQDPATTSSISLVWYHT

[6] = biological target: T6, mouse FcγRIV (mouse, UniProt A0A0B4J1G0 21-203); assay: as above
T6 construct: bought; also called mFcgRIV; mFcgR IV; the vendor's purification tag not given
T6 sequence: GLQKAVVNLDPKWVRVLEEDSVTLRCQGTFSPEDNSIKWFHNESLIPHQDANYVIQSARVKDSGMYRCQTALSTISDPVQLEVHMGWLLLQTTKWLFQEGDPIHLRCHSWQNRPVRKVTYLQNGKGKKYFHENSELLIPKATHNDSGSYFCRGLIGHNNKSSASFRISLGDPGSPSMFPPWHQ

[7] = biological target: T7, soluble human FcRn complexed with β2-microglobulin (human, UniProt P61769 part only, limits assumed); assay: Biacore SPR, pH 7.0;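 note: test antibodies captured on a Protein L chip with human FcRn flowed over as analyte, KD obtained as the ratio of dissociation to association rate constants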
T7 construct: also called hFcRn

[8] = biological target: T8, human FcRn (soluble human FcRn complexed with β2-microglobulin) (human, UniProt P61769 part only, limits assumed); assay: SPR, pH 7.0;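 note: antibodies captured on a Protein L sensor chip with human FcRn injected as analyte, KD calculated from fitted association and dissociation rate constants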
T8 construct: also called hFcRn

binding amount [1]: 12.2 RU
B1: VH3-IgG1-F648/L(WT)-CK (antibody)
heavy: QVQLQESGPGLVKPSETLSLTCAVSGHSISHDHAWSWVRQPPGEGLEWIGFISYSGITNYNPSLQGRVTISRDNSKNTLYLQMNSLRAEDTAVYYCARSLARTTAMDYWGEGTLVTVSS[here human IgG1 constant region with P238D (EU numbers) without letters]
light: DIQMTQSPSSLSASVGDRVTITCRASQDISSYLNWYQQKPGKAPKLLIYYTSRLHSGVPSRFSGSGSGTDFTFTISSLQPEDIATYYCQQGNTLPYTFGQGTKVEIKRTVAAPSVFIFPPSDEQLKSGTASVVCLLNNFYPREAKVQWKVDNALQSGNSQESVTEQDSKDSTYSLSSTLTLSKADYEKHKVYACEVTHQGLSSPVTKSFNRGEC
notes: P238D in VH3-IgG1; copies: 2 + 2

binding result [2]: no binding | BINDING AMOUNT (RU) [3]: -1.9 RU | BINDING AMOUNT (RU) [4]: -2.2 RU | BINDING AMOUNT (RU) [5]: -15.1 RU | BINDING AMOUNT (RU) [6]: 8.1 RU
B2: antibody with VH3-IgG1-F760 heavy chain and L(WT)-CK light chain (antibody)
heavy: QVQLQESGPGLVKPSETLSLTCAVSGHSISHDHAWSWVRQPPGEGLEWIGFISYSGITNYNPSLQGRVTISRDNSKNTLYLQMNSLRAEDTAVYYCARSLARTTAMDYWGEGTLVTVSS[here human IgG1 constant region with L235R S239K (EU numbers) without letters]
light: B1 light
notes: L235R/S239K; copies: 2 + 2

Kd [7]: 490 nM
B3: IgG1-F1174 (antibody)
heavy: QVQLQESGPGLVKPSETLSLTCAVSGHSISHDHAWSWVRQPPGEGLEWIGFISYSGITNYNPSLQGRVTISRDNSKNTLYLQMNSLRAEDTAVYYCARSLARTTAMDYWGEGTLVTVSS[here human IgG1 constant region with P257I N434H (EU numbers) without letters]
light: B1 light
notes: EU numbering; copies: 2 + 2

Kd [7]: 1100 nM
B7: IgG1-F761 (antibody)
heavy: QVQLQESGPGLVKPSETLSLTCAVSGHSISHDHAWSWVRQPPGEGLEWIGFISYSGITNYNPSLQGRVTISRDNSKNTLYLQMNSLRAEDTAVYYCARSLARTTAMDYWGEGTLVTVSS[here human IgG1 constant region with P238D N434Y (EU numbers) without letters]
light: B1 light
notes: EU numbering; copies: 2 + 2

Kd [7]: 479 nM
B9: IgG1-F1159 (antibody)
heavy: QVQLQESGPGLVKPSETLSLTCAVSGHSISHDHAWSWVRQPPGEGLEWIGFISYSGITNYNPSLQGRVTISRDNSKNTLYLQMNSLRAEDTAVYYCARSLARTTAMDYWGEGTLVTVSS[here human IgG1 constant region with S424N N434W (EU numbers) without letters]
light: B1 light
notes: EU numbering; copies: 2 + 2

Continued, binder first:

B4: IgG1-F512 (antibody)
heavy: QVQLQESGPGLVKPSETLSLTCAVSGHSISHDHAWSWVRQPPGEGLEWIGFISYSGITNYNPSLQGRVTISRDNSKNTLYLQMNSLRAEDTAVYYCARSLARTTAMDYWGEGTLVTVSS[here human IgG1 constant region with P257T N434Y (EU numbers) without letters]
light: B1 light
notes: EU numbering; copies: 2 + 2
Kd [8]: 580 nM

B5: IgG1-F511 (antibody)
heavy: QVQLQESGPGLVKPSETLSLTCAVSGHSISHDHAWSWVRQPPGEGLEWIGFISYSGITNYNPSLQGRVTISRDNSKNTLYLQMNSLRAEDTAVYYCARSLARTTAMDYWGEGTLVTVSS[here human IgG1 constant region with P257V N434Y (EU numbers) without letters]
light: B1 light
notes: EU numbering; copies: 2 + 2
Kd [8]: 420 nM

B6: IgG1-F617 (antibody)
heavy: QVQLQESGPGLVKPSETLSLTCAVSGHSISHDHAWSWVRQPPGEGLEWIGFISYSGITNYNPSLQGRVTISRDNSKNTLYLQMNSLRAEDTAVYYCARSLARTTAMDYWGEGTLVTVSS[here human IgG1 constant region with S239K N434W (EU numbers) without letters]
light: B1 light
notes: EU numbering; copies: 2 + 2
Kd [8]: 740 nM

B8: IgG1-F188 (antibody)
heavy: QVQLQESGPGLVKPSETLSLTCAVSGHSISHDHAWSWVRQPPGEGLEWIGFISYSGITNYNPSLQGRVTISRDNSKNTLYLQMNSLRAEDTAVYYCARSLARTTAMDYWGEGTLVTVSS[here human IgG1 constant region with P257I Q311I (EU numbers) without letters]
light: B1 light
notes: EU numbering; copies: 2 + 2
Kd [8]: 3000 nM

One block for each binder: values may come before it.
